Experimental data: the supplement of paper PMC11060735
Where “and” joins values, the source holds several entries; their conditions need not be identical. Identical values can stand only once. Counter-ions that a name gives are not always drawn. Hit rate of the full screen: of about 1,800 compounds, about 50 (3%) showed activity. Some of the results follow.

Tested on: mouse p16Ink4a+/- lung fibroblasts (INKBRITE, bleomycin-injured)
Test: percentage of GFP+ (p16Ink4a+) fibroblasts among all cells in well; higher = less depletion of p16Ink4a+ cells, active = 20 or less
Settings: 1 µM; 3 days
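Further: fibroblasts sorted 14 days after bleomycin, GFP+ and GFP− mixed 1:1 in 384-well plates (GFP− as in-well control), imaged after Hoechst and NucView530 staining, reference wells lacked compound.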

SMILES	percentage of GFP+
CN(Cc1ccc(C(C)(C)C)cc1)Cc1cccc2ccccc12 [Butenafine]	inactive: 51.2%
C#C[C@]1(O)CC[C@H]2[C@@H]3CCc4cc(OC)ccc4[C@H]3CC[C@@]21C [Mestranol]	inactive: 38.6%
CCOCC(O)COc1ccc(NC(=O)CC[S+](C)C)cc1 (stereo not given) [Suplatast Tosylate]	inactive: 45.9%
CCOC(=O)n1ccn(C)c1=S [Carbimazole]	inactive: 43.4%
COc1ccc(C(C)=O)c(O)c1 [Paeonol]	inactive: 40.3%
CC(C)C[C@@H](C=O)NC(=O)[C@H](CC(C)C)NC(=O)[C@H](CC(C)C)NC(=O)OCc1ccccc1	active: 7.69%
CCC(=O)c1c(O)cc(O)cc1O [Flopropione]	inactive: 40.7%
N=C(N)c1ccc(OCCCCCOc2ccc(C(=N)N)cc2)cc1 [Pentamidine]	inactive: 54%
COc1ccc(CNc2nc(N3CCC[C@H]3CO)ncc2C(=O)NCc2ncccn2)cc1Cl [Avanafil]	inactive: 46.5%
NC1(C(=O)N[C@@H](CCO)c2ccc(Cl)cc2)CCN(c2ncnc3[nH]ccc23)CC1	inactive: 44.2%
O=C(COc1cccc2c(O)nccc12)c1ccccc1	inactive: 50.6%
Clc1ccc(COC(Cn2ccnc2)c2ccc(Cl)cc2Cl)c(Cl)c1 (stereo not given) [Miconazole]	inactive: 31.6% and inactive: 35.8%
COc1cc2ncnc(Nc3ccc(F)c(Cl)c3)c2cc1NC(=O)/C=C/CN1CCCCC1 [Dacomitinib]	inactive: 53.1%
Cc1ccc([N+](=O)[O-])cc1S(=O)(=O)N(C)/N=C/c1cnc2ccc(Br)cn12	active: 3.79%
CC(C)Cn1cnc2c(N)nc3ccccc3c21 [Imiquimod]	inactive: 39.1%
O=C(O)C1=CO[C@@H](O[C@@H]2O[C@H](CO)[C@@H](O)[C@H](O)[C@H]2O)[C@@H]2C(CO)=CC[C@H]12 [Geniposidic acid]	inactive: 39.1%
COc1ccccc1N1CCN(CC(O)COc2cccc3ccccc23)CC1 (stereo not given) [Naftopidil Dihydrochloride, Naftopidil]	inactive: 45.6% and inactive: 46.7%
CN1CC[C@H](c2c(O)cc(O)c3c(=O)cc(-c4ccccc4Cl)oc23)[C@H](O)C1 [Flavopiridol]	active: 4.28%
COc1cc2c(Oc3ccc4[nH]c(C)cc4c3F)ncnc2cc1OCCCN1CCCC1	inactive: 41.3%
Nc1nc(O)ncc1F [Flucytosine, 5-fluorocytosine]	inactive: 43.2%
O=C1[C@H](Cc2ccc(O)cc2)N2C(=O)CCN(C(=O)NCc3ccccc3)[C@H]2CN1Cc1cccc2ccccc12	inactive: 53.9%
Cc1csc(-c2nnc(Nc3ccc(Oc4ncccc4-c4ccnc(N)n4)cc3)c3ccccc23)c1	inactive: 35.6%
CNC(=O)c1ccc(N2C(=S)N(c3ccc(C#N)c(C(F)(F)F)c3)C(=O)C2(C)C)cc1F [Enzalutamide]	inactive: 37.1%

SMILES	percentage of GFP+
CN1CCC(=C2c3ccccc3CC(=O)c3sccc32)CC1 [Ketotifen]	inactive: 48.3%
CN1CCN(c2ccc3[nH]c(-c4c(O)nc5cccc(F)c5c4N)nc3c2)CC1 [Dovitinib]	inactive: 25.7% and inactive: 32.6%
Nc1nc(=O)n([C@@H]2CS[C@H](CO)O2)cc1F [Emtricitabine]	inactive: 44%
O=C1NC(=O)C(=Cc2ccc3c(c2)OC(F)(F)O3)S1 (stereo in doubt)	inactive: 49.6%
C#C[C@]1(O)CC[C@H]2[C@@H]3CCC4=CC(=O)CC[C@@H]4[C@H]3CC[C@@]21C [Norethisterone]	inactive: 52.3%
Cc1ccc(-n2nc(C(C)(C)C)cc2NC(=O)Nc2ccc(OCCN3CCOCC3)c3ccccc23)cc1 [Doramapimod]	inactive: 47.1%
CCCN(CCC)S(=O)(=O)c1ccc(C(=O)O)cc1 [Probenecid]	inactive: 44.3%
Cc1cc(Nc2ncc(Cl)c(Nc3ccccc3S(=O)(=O)C(C)C)n2)c(OC(C)C)cc1C1CCNCC1 [Ceritinib]	inactive: 46.8%
OC[C@@H]1CC[C@H](n2cnc3c(O)ncnc32)O1 [Didanosine]	inactive: 48.5%
Cc1cc(C(=O)NOCCO)c(Nc2ccc(I)cc2F)n(C)c1=O	inactive: 21.2%
CC(C)c1onc(-c2c(Cl)cccc2Cl)c1COc1ccc(/C=C/c2cccc(C(=O)O)c2)c(Cl)c1	inactive: 37.4%
COCCOc1ccc2c(c1)ncn2-c1ccc2cccc(N3CCC(N)CC3)c2n1	inactive: 29.2%
CCCC(=O)O[C@]1(C(=O)COC(C)=O)CC[C@H]2[C@@H]3C[C@H](F)C4=CC(=O)C=C[C@]4(C)[C@@]3(F)[C@@H](O)C[C@@]21C [Difluprednate]	inactive: 50%
Nc1c(CC(=O)O)cccc1C(=O)c1ccc(Br)cc1 [Bromfenac]	inactive: 46.4%
CCOC(=O)[C@H](CCc1ccccc1)N[C@@H](C)C(=O)N1C(=O)N(C)C[C@H]1C(=O)O [Imidapril HCl]	inactive: 43.4%
O=C(Nc1cccc(Cl)c1)Nc1ncc(CCNc2ncnc3ccsc23)s1 [SNS-314 Mesylate]	inactive: 34.9%
O=C(O)COCCN1CCN(C(c2ccccc2)c2ccc(Cl)cc2)CC1 (stereo not given) [Cetirizine]	inactive: 46.1%
CC(C)c1noc(N2CCC(COc3ccc(-c4ccc(S(C)(=O)=O)cc4)nc3)CC2)n1	inactive: 37.2%
Cc1cc(=O)n(-c2ccccc2)n1C [Antipyrine]	inactive: 48.2%
CCN(CC)CC#CCOC(=O)C(O)(c1ccccc1)C1CCCCC1 (stereo not given) [Oxybutynin]	inactive: 50.9%
C=CC[C@@H]1/C=C(\C)C[C@H](C)C[C@H](OC)[C@H]2O[C@@](O)(C(=O)C(=O)N3CCCC[C@H]3C(=O)O[C@H](/C(C)=C/[C@@H]3CC[C@@H](O)[C@H](OC)C3)[C@H](C)[C@@H](O)CC1=O)[C@H](C)C[C@@H]2OC [Tacrolimus]	inactive: 38.6%
COC(=O)N[C@H](C(=O)N[C@@H](Cc1ccccc1)[C@@H](O)CN(Cc1ccc(-c2ccccn2)cc1)NC(=O)[C@@H](NC(=O)OC)C(C)(C)C)C(C)(C)C [Atazanavir]	inactive: 37.3%
